Series [1] deals with L1 wild-type C. elegans. The following applies: for KCN survival assay value relative to DMSO control: 15 hour drug + KCN treatment; for KCN survival assay value relative to DMSO control / C. elegans L1 relative motility, 3-hour post 200 µM KCN dilution: Mean of replicates.
The nature of series [2]: in vitro. The following applies: human.
For series [3], the system named is L1 wild-type C. elegans (N2). As to the kind of experiment: microbe, parasite or virus in culture. As to conditions: Caenorhabditis elegans; for viability at 0.4 µM: read-out: C. elegans L1 development and viability (6-day growth), dose 0.4 µM; for viability at 0.8 µM: read-out: C. elegans L1 development and viability (6-day growth), dose 0.8 µM; for viability at 3.1 µM: read-out: C. elegans L1 development and viability (6-day growth), dose 3.1 µM; for viability at 6.3 µM: read-out: C. elegans L1 development and viability (6-day growth), dose 6.3 µM; for viability at 12.5 µM: read-out: C. elegans L1 development and viability (6-day growth), dose 12.5 µM; for viability at 25 µM: read-out: C. elegans L1 development and viability (6-day growth), dose 25 µM; for viability at 50 µM: read-out: C. elegans L1 development and viability (6-day growth), dose 50 µM; for viability at 100 µM: read-out: C. elegans L1 development and viability (6-day growth), dose 100 µM.

Series [4] concerns L1 wild-type C. elegans (N2). As to conditions: for C. elegans L1 development and viability (6-day growth): individual replicate (Rep); for viability score (0-1) relative to DMSO controls: C. elegans (N2), 1 = like DMSO control, 0 = death.
[5] abbreviates: 144 h, read-out: C. elegans (Wild type) Development & Viability Assay LC50.
Setting [6] is: read-out: C. elegans (Wild type) Development & Viability Assay LC50.
Where [7] appears, read: read-out: C. elegans Wt viability log10 LC50 (converted).
Setting [8] is: N2 (wild type), caenorhabditis elegans.
The mark [9] stands for this setting: 144 h, individual replicate (Rep).

Values joined by “and” are separate entries in the source; they are usually repeats but may differ in a detail not shown here. Identical values can stand only once. Like-named read-outs stand apart in the source and are kept apart here.

Regarding `CC(C)Cc1ccc(C(C)c2nc3ccccc3n2C)cc1` (centres unmarked) [NPD8790], the “Screen "Hit"” value in series [1] (50 μM compound, […], hit = relative motility below 0.25 3 hours after removal of KCN) is reported as “Y (hits were identified as compounds that reduced relative motility below 0.25 (75% reduction))”. Moreover, the CC50 (as a rule, the concentration at which the toxic effect on the cells reaches its halfway point) at 2 days in series [2] (HEK293 Cell Viability Assay LC50, 2 days exposure) was over 50 µM; in series [2] (HEK293 Cell Viability Assay LC50, HEK293 cells, estimated from fitted dose-response curves) it was 90.8 µM. In addition, the LC50 (commonly the concentration that kills 50% of the test population) was over 100 µM in series [3] (setting [5]), over 1000 µM in series [3] (setting [6]), over 500 µM in series [3] (read-out: C. elegans Wt viability LC50) and over 500 µM in series [3] (setting [7]).

For `C=C(C)[C@H]1Cc2c(ccc3c2O[C@@H]2COc4cc(OC)c(OC)cc4[C@@H]2C3=O)O1` [Rotenone, reference compound], the results for the LC50 in series [4] (setting [8]) and in series [3] (setting [5]) were 3.39 µM and 3.1 µM, respectively. Moreover, the “C. elegans L1 development and viability (6-day growth)” value in series [4] (dose 0.2 µM) was 0.782; in series [4] (dose 0.4 µM), 0.741; in series [4] (dose 0.8 µM), 0.796; in series [4] (dose 3.1 µM) it was 0.608 and 0.451 and 0.742; in series [4] (dose 12.5 µM), 0.013; in series [4] (dose 25 µM), 0.015 and 0.014 and 0.031. Further, the “C. elegans L1 development and viability (6-day growth)” value is 0.025 and 0.023 and 0.051 in series [4] (dose 50 µM); 0.024 and 0.058 in series [4] (dose 100 µM). For the same molecule, in series [3] (144 h, read-out: C. elegans L1 development and viability (6-day growth), dose 0.2 µM, Mean of replicates), the viability (usually a per cent measure of how many cells are alive, often set against a control) at 0.2 µM is 92.7%. In addition, the viability at 0.4 µM in series [3] (144 h, Mean of replicates) worked out at 91.4%. Also, the viability at 0.8 µM in series [3] (144 h, Mean of replicates) amounted to 93.2%. The viability at 3.1 µM in series [3] (144 h, Mean of replicates) was found to be 60%. In addition, the viability at 6.3 µM in series [3] (144 h, Mean of replicates) stood at 3.5%. For the same molecule, the viability at 12.5 µM in series [3] (144 h, Mean of replicates) came out at 1.7%; in series [3] (setting [9]) it was 2.2%. In series [3] (144 h, Mean of replicates), the viability at 25 µM came to 2%. Also, the viability at 50 µM in series [3] (144 h, Mean of replicates) was 3.3%. The viability at 100 µM in series [3] (144 h, Mean of replicates) came out at 3.5%.

Turning to `Cc1nc2ccccc2n1Cc1ccc(Cl)cc1` [STK697993], the “viability score (0-1) relative to DMSO controls” value in series [4] (2 µM) came to 0.976; in series [4] (3.9 µM), 0.983; in series [4] (15.6 µM), 0.900; in series [4] (31.3 µM) it was 0.109; in series [4] (62.5 µM), 0.004; in series [4] (125 µM), 0.0019. The “viability score (0-1) relative to DMSO controls” value in series [4] (250 µM) turned out to be 0.036. In addition, the results for the median lethal concentration (LC50) in series [3] (setting [5]), in series [3] (setting [6]) and in series [3] (setting [7]) were 31.5 µM, 46.1 µM and 46.1 µM, respectively.

Regarding `Cc1cc(O)c2c(c1)O[C@@]1(C)CC[C@H]3C(C)(C)CCC[C@]34CO[C@@H]2[C@H]41` [Siccanin], the “KCN survival assay value relative to DMSO control” value in series [1] (dose 0.1 µM) is on record as 0.898; in series [1] (dose 0.2 µM), 0.977; in series [1] (dose 0.4 µM) it was 0.943; in series [1] (dose 0.8 µM), 0.815; in series [1] (dose 3.1 µM), 0.695; in series [1] (dose 6.3 µM), 0.485. Besides, the “KCN survival assay value relative to DMSO control” value turned out to be 0.200 in series [1] (dose 12.5 µM), 0.036 in series [1] (dose 25 µM), 0.015 in series [1] (dose 50 µM) and 0.017 in series [1] (dose 100 µM). Further, the LC50 in series [1] (setting [8]) was 6.34 µM; in series [3] (setting [5]), 15.2 µM. Besides, the “C. elegans L1 relative motility, 3-hour post 200 µM KCN dilution” value in series [1] (dose 0.1 µM) is 0.898; in series [1] (dose 0.2 µM) it was 0.977; in series [1] (dose 0.4 µM), 0.943; in series [1] (dose 0.8 µM) it was 0.815; in series [1] (dose 3.1 µM), 0.695; in series [1] (dose 6.3 µM), 0.485. Further, the “C. elegans L1 relative motility, 3-hour post 200 µM KCN dilution” value in series [1] (dose 12.5 µM) was 0.200; in series [1] (dose 25 µM) it was 0.036; in series [1] (dose 50 µM) it was 0.015; in series [1] (dose 100 µM), 0.017; in series [1] (dose […]), 0.895. In addition, the “C. elegans L1 development and viability (6-day growth)” value in series [4] (dose 0.4 µM) was 0.911; in series [4] (dose 3.1 µM), 0.923; in series [4] (dose 6.3 µM) it was 0.900; in series [4] (dose 100 µM) it was 0.012 and 0.0064 and 0.019. The viability at 0.4 µM in series [3] (144 h, Mean of replicates) was 97.8%; in series [3] (setting [9]), 100%. Besides, the viability at 0.8 µM came out at 100% in series [3] (144 h, Mean of replicates) and 100% in series [3] (setting [9]). In addition, the viability at 3.1 µM was found to be 98.1% in series [3] (144 h, Mean of replicates) and 100% in series [3] (setting [9]). The viability at 6.3 µM amounted to 97.5% in series [3] (144 h, Mean of replicates) and 100% in series [3] (setting [9]). Further, the viability at 12.5 µM in series [3] (144 h, Mean of replicates) came to 69.5%. Also, the viability at 25 µM in series [3] (144 h, Mean of replicates) came to 9.7%. In series [3] (144 h, Mean of replicates), the viability at 50 µM came to 2%. For the same molecule, the viability at 100 µM in series [3] (144 h, Mean of replicates) stood at 1.3%. Further, the viability at 200 µM in series [3] (144 h, read-out: C. elegans L1 development and viability (6-day growth), dose 200 µM, Mean of replicates) turned out to be 0.12%.

The values above are taken from publication PMC11079024, “Identification of a family of species-selective complex I inhibitors as potential anthelmintics” (Nature Communications, 2024).
